Assay results from publication PMC4336329 (PLoS ONE, 2015).
The campaign covered roughly 310,000 compounds. About 14,000 (4.5%) showed an effect of 50% or more. Effects have a minus sign here. The list shows a part of the results.

What follows are molecules tested against human ether-à-go-go-related gene (hERG) potassium channel (human, UniProt Q12809) (assay: primary screen, population patch clamp on CHO cells stably expressing hERG).
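Further: peak tail current of the secondary pulse compared with the same well before compound.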

Chain of human ether-à-go-go-related gene (hERG) potassium channel (Q12809 whole entry, looked up): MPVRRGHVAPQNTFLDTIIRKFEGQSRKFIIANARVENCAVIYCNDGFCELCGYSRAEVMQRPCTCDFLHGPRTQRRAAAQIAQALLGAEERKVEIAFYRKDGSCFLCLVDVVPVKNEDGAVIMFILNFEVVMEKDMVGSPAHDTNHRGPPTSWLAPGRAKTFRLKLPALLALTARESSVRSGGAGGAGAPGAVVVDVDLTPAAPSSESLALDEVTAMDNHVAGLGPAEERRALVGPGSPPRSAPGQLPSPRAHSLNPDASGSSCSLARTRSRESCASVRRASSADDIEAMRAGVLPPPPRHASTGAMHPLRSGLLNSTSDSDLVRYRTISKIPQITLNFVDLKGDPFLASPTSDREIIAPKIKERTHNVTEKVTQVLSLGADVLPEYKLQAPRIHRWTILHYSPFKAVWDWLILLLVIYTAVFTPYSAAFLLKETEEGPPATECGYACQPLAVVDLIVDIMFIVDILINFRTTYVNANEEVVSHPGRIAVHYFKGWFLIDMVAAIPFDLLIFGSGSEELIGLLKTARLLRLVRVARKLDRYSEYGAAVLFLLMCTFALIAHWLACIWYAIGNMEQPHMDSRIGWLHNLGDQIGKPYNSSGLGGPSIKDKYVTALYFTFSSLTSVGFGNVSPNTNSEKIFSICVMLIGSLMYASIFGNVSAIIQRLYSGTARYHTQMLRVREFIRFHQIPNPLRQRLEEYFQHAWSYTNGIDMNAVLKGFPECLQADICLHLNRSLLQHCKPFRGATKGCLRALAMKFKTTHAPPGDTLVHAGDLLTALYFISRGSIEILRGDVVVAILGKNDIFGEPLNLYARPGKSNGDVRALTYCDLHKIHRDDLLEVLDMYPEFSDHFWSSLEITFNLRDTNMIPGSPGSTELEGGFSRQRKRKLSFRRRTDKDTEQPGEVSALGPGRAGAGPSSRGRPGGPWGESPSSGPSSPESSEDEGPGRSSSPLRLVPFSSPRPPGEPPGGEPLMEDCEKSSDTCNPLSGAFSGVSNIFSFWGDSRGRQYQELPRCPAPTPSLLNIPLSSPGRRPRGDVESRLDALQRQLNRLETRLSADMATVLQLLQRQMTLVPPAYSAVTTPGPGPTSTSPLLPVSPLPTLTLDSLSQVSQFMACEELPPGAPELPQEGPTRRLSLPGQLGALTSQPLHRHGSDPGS

Row | SMILES | hERG current change (%, negative = inhibition) at 10uM [%]
1 | Cc1nc(NC(=O)CSc2nnc(C3CC3)n2C)sc1C | 11.8
2 | CC(=O)Oc1ccc2c(C)c(CC(C)O)c(=O)oc2c1 (stereo not shown) | 6.98
3 | CCOC1(c2ccccc2)CC1C(=O)N/N=C/c1cccc([N+](=O)[O-])c1 (stereo not shown) | 0.132
4 | COc1ccc2c(c1)C(=O)OC2CC(=O)O (stereo not shown) | 2.55
5 | O=C(Cn1[nH]c(=O)c2ccccc2c1=O)N1CC=C(c2ccccc2)CC1 | -4.76
6 | CC(C)c1ccc(NC(=O)CN2C(=O)NC(C)(C3CC3)C2=O)cc1 (stereo not shown) | -0.0473
7 | COc1ccc2[nH]c(C(=O)Nc3cccc(C)n3)cc2c1 | 14.9
8 | COc1ccc(C(O)c2coc3ccc(O)c(CN(C)C)c23)cc1 (stereo not shown) | -47.9
9 | CC[N+]1=C(C)C(C)(C)c2cc(C)ccc21.[I-] | -5.19
10 | Cc1c(C(=O)OCc2ccccc2)[nH]c2c1C(=O)CC(c1ccco1)C2 (stereo not shown) | 3.85
11 | FC(F)(F)c1nc2ccccc2n1CCNc1nc(CN2CCCCC2)cs1 | 14.1
12 | CC1N(C(=O)N2CCOCC2)CCN1S(=O)(=O)c1ccc(Cl)cc1 (stereo not shown) | 7.92
13 | CCOc1ccc(-n2cc(C(=O)NC(C)C)c3cc(OC)c(OC)cc3c2=O)cc1 | -3.27
14 | Cc1noc(C)c1C(=O)Nc1ccc(F)cc1F | -1.56
15 | COc1ccccc1C1/C(=C(/O)c2ccccc2)C(=O)C(=O)N1CC(C)C (stereo not shown) | 6.81
16 | COCc1cc(=O)[nH]c(/N=C(\N)Nc2ccc(Cl)c(Cl)c2)n1 | 17.4
17 | Cc1cc(C)n2nc(CNS(=O)(=O)c3c(F)c(F)c(F)c(F)c3F)nc2n1 | -45
18 | Cl.O=C1CC(=C(c2ccccc2)c2ccccc2)C(=O)N1CCCCN1CCN(c2cccc(Cl)c2)CC1 | -46
19 | CCOC(=O)CSc1nc2cc3c(cc2cc1CC)OCCO3 | 2.39
20 | Cc1nn2c(-c3ccco3)nnc2c2ccccc12 | -27.1
21 | CC(=O)c1cccc(CN2CCN(CCc3ccccc3)C(CCO)C2)c1 (stereo not shown) | -53.3
22 | CC1CCC(NS(=O)(=O)c2cccc3nsnc23)CC1 (stereo not shown) | -2.16
23 | C=CCNC(=O)COC(=O)C1CCN(S(=O)(=O)c2ccc3c(c2)OCCO3)CC1 | -2.38
24 | O=c1[nH]c2ccccc2nc1-c1ccccc1 | 8.4
25 | Cc1nnc(SCC(=O)NC(=O)Nc2ccc3c(c2)OCCO3)n1N | 0.21
